In all, about 420,000 compounds went through this assay and about 50,000 (12%) were called active. The shares of active, inactive and inconclusive entries below differ from those in the screen. Calls follow the shape of the dose curve; as a rule, active = well fitted inhibition curve with a large enough effect; inconclusive = small, poorly fitted or top-dose-only effect; inactive = flat fitted curve, though single readings scatter. Potencies of inconclusive entries are left out as doubtful fits.
Assay: qHTS for Inhibitors of human tyrosyl-DNA phosphodiesterase 1 (TDP1): qHTS in cells in presence of CPT; also: nearly all actives have a fitted effect of over 55% in size
Details: chicken DT40 Tdp1-/-;hTDP1 cells + 20 nM CPT, ATP luminescence, 48 h; activity change, negative = growth inhibition: at 46.2 µM (top of the series) unless noted
In short: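 Chicken DT40 Tdp1-/- cells stably complemented with human TDP1 were seeded at 400 cells/well in medium containing 20 nM camptothecin, exposed to pin-transferred compounds, and grown at 37 °C for at least 48 hr. Viability was read as ATP luminescence.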
% is scaled to controls: 0 for no effect and ±100 for the full control effect; potency is read from the fitted curve at half-maximal effect; tags tell the direction and shape of the fitted curve.

Row | Compound | Potency | activity change, negative = growth inhibition
1 | COc1ccc(CCn2c(=N)c(C(=O)NCCN3CCOCC3)cc3c(=O)n4cccc(C)c4nc32)cc1OC | inconclusive [inhibitor, single point] | 
2 | NCCC(O)(P(=O)(O)O)P(=O)(O)O |  | inactive: -15.4%
3 | O=C1CN(C(=O)COc2ccc(Cl)cc2Cl)C(c2ccc(F)cc2)c2cc(F)ccc2N1 (stereo not given) | active: 20.6 µM | 
4 | COC(=O)[C@@]12CCCCN1[C@H](c1ccc(-c3cccc(Cl)c3)c(OC)c1)[C@H]1C(=O)N(C)C(=O)[C@H]12 | active: 18.4 µM | 
5 | O=C(CCC(=O)Nc1ccccc1Cl)N/N=C/c1c[nH]c2ccccc12 |  | inactive: 11.4%
6 | CCc1cccc(NC(=O)c2c(C)oc3ncnc(N4CCCCC4)c23)c1 | active: 13 µM | 
7 | COc1ccccc1C1=NOC(COc2ccc3c(C)cc(=O)oc3c2)C1 (stereo not given) | active: 0.82 µM | 
8 | COc1ccc(Oc2ncc3nc(C)c(=O)n(-c4ccc(OC)cc4)c3n2)cc1 |  | inactive: 0.336%
9 | CCC(=O)N1N=C(c2ccc(NS(=O)(=O)CC)cc2)CC1c1ccc(C)cc1 (stereo not given) | inconclusive [inhibitor, single point] | 
10 | O=C(c1cc(-c2ccccc2Cl)nc2ccccc12)N1CCC1 |  | inactive: -28.1%
11 | CC(=O)N(C1=C(Cl)C(=O)c2ccccc2C1=O)C1CCCCC1 | active: 0.461 µM | 
12 | CS(=O)(=O)N1N=C(c2ccccc2)CC1c1ccc2nccnc2c1 (stereo not given) | inconclusive [inhibitor, partial curve, poor fit] | 
13 | COCCn1cnc2c(c1=O)c1nc3ccccc3nc1n2/N=C/c1cccc(OC)c1 | active: 13 µM | 
14 | O=C(Nc1ccc2nc(C3CC3)n(Cc3ccccc3)c(=O)c2c1)C1CC1 |  | inactive: -24.7%
15 | CC(=O)COC(=O)CCc1nc2ccccc2[nH]c1=O |  | inactive: -7.1%
16 | O=C(Nc1ccnn1C1CCN(Cc2ccc(OC(F)F)cc2)CC1)C1CCCC1 | inconclusive [inhibitor, single point] | 
17 | CCCC(C(=O)NC1CCCCC1)N(CC1CCCO1)C(=O)CNS(=O)(=O)c1ccc(F)cc1 (stereo not given) |  | inactive: -24.5%
18 | COc1ccc(NC2=C(c3ccc(OC)cc3)C(=O)c3ccccc32)cc1 | active: 3.66 µM | 
19 | CC(C)NC(=S)N1CCN(S(C)(=O)=O)CC1 |  | inactive: 2.05%
20 | O=C(Nc1cccc(Oc2ccccc2)c1)C1Cc2c(-c3ccccc3)ccnc2O1 (stereo not given) | active: 23.1 µM | 
21 | CC(NC(=O)c1cccs1)C(S)c1ccccc1 (stereo not given) | inconclusive [inhibitor, single point] | 
22 | Cc1cc(Cl)ccc1NC(=O)CSc1nnc(Cc2cccs2)n1Cc1ccco1 | inconclusive [inhibitor, single point] | 
23 | O=C(Nc1cccn(Cc2c(Cl)cccc2Cl)c1=O)c1ccccc1Cl | inconclusive [inhibitor, single point] | 
24 | Cc1cccc(NC(=O)c2ccc(OC3CSC3)cc2)c1 | inconclusive [inhibitor, single point] | 
25 | Cc1nc(CN2CCN(C(=O)c3ccc(C(C)(C)C)cc3)CC2)cs1 | inconclusive [inhibitor, single point] | 

Row | Compound | Potency | activity change, negative = growth inhibition
26 | Cc1cc(NC(=O)CSc2ccc3nnc(CCNS(=O)(=O)c4ccccc4)n3n2)no1 |  | inactive: -25.1%
27 | Cc1ccc(-n2ncc(Cl)c2C(=O)NC2CC2)cc1 | inconclusive [inhibitor, single point] | 
28 | CC(C)c1ccc(Nc2cc(C(=O)NCc3cccs3)c3ccccc3n2)cc1 | inconclusive [inhibitor, single point] | 
29 | O=C(Nc1ccc2c(c1)OCCO2)C(C1CC1)N1CCN(c2ccc(F)cc2)CC1 (stereo not given) | inconclusive [inhibitor, single point] | 
30 | CCCC[C@@H]1CNCCN1CCc1cc(C(F)(F)F)cc(C(F)(F)F)c1 | inconclusive [inhibitor, single point] | 
31 | Cc1cccc(CNc2ccnc(-c3ccccc3Cl)n2)c1 | inconclusive [inhibitor, single point] | 
32 | CCOC(=O)N1CCc2c(sc(NCc3cccs3)c2C(=O)Nc2cc(OC)ccc2OC)C1 | inconclusive [inhibitor, single point] | 
33 | CCOC(=O)C1CCN(S(=O)(=O)c2cc3c(cc2C)NC(=O)CO3)CC1 |  | inactive: 0.746%
34 | CCOc1ccc(N(CC(=O)Nc2ccc(C)c(C)c2)S(=O)(=O)c2c(C)noc2C)cc1 | active: 9.2 µM | 
35 | O=C1NC(c2ccc(Br)cc2)Nc2ccccc21 (stereo not given) | active: 6.51 µM | 
36 | COc1ccc(Cc2c(C3CCCCC3)nc3cc(C)c(Br)c(C)n23)c(C)c1 |  | inactive: -5.02%
37 | Cc1cc(C)nc(NC(=NCCc2c[nH]c3ccccc23)NC(=O)Nc2ccccc2)n1 | inconclusive [inhibitor, single point] | 
38 | CCOc1cc(N2CCOCC2)c(OCC)cc1NC(=O)c1ccc2ccccc2n1 | inconclusive [inhibitor, single point] | 
39 | O=C(Nc1ccc(S(=O)(=O)N2CCCCC2)cc1)c1cccnc1Cl | inconclusive [inhibitor, partial curve] | 
40 | COc1ccc(-c2nc(CN3CCN(Cc4ccccc4)CC3)c(C)o2)cc1 |  | inactive: 4.97%
41 | Cc1ccc2nc(NCCCO)nc(-c3ccccc3)c2c1 | active: 13 µM | 
42 | CC1c2cc3c(cc2CCN1S(=O)(=O)c1ccccc1)OCCCO3 (stereo not given) | inconclusive [inhibitor, single point] | 
43 | Nc1ccn(CCCNCC(c2ccccc2)c2ccccc2)c(=O)n1 |  | inactive: 1.14%
44 | CC(C)(C)OC(=O)N[C@@H](Cc1ccccc1)C(=O)NCC1CCC(C(=O)N[C@@H](CC(=O)O)C(=O)O)CC1 (stereo not given in full) |  | inactive: 10.4%
45 | CC(=O)Nc1ccc(/C=C/C(=O)c2ccc3c(c2)OCCO3)cc1 | inconclusive [inhibitor, single point] | 
46 | CC/C(=N\NS(C)(=O)=O)c1ccccc1 |  | inactive: -2.83%
47 | COc1ccc(Cl)cc1N(CC(=O)N1CCCC1)S(=O)(=O)c1ccc(C)cc1 | inconclusive [inhibitor, single point] | 
48 | O=S(=O)(NCC(c1ccco1)N1CCc2ccccc21)c1ccccc1 (stereo not given) | active: 23.1 µM | 
49 | CCCn1nnnc1SCC(=O)N(C(C)C)C(C)C |  | inactive: 2.73%
50 | CSc1ncc(C(=O)Nc2ccc(Br)cn2)c(C)n1 | active: 16.4 µM | 

Row | Compound | Potency | activity change, negative = growth inhibition
51 | CCCN(C(=O)COC(=O)CCC(=O)c1ccccc1)c1c(N)n(Cc2ccccc2)c(=O)[nH]c1=O |  | inactive: -14.9%
52 | CCC(O)C1CCN(C(=O)c2cc(COc3ccc4ncccc4c3)on2)CC1 (stereo not given) | active: 4.11 µM | 
53 | Cc1cc(C)c(NC(=O)CCCCCNC2CCCCC2)c(C)c1 | inconclusive [inhibitor, single point] | 
54 | CCN(CC)c1ccc(NC(=O)c2ccc3c(c2)c(C)c(C)n3C)cc1 | active: 23.1 µM | 
55 | Cc1cc(/C=N/NC(=O)c2ccoc2C)cc(C)c1O |  | inactive: -7.97%
56 | COc1ccc(C(=O)C2CCCN(Cc3cccn3-c3cccnc3)C2)cc1OC (stereo not given) | active: 16.4 µM | 
57 | COc1ccc(C(O)c2nc(-c3ccc(OC)c(OC)c3)cs2)cc1 (stereo not given) | active: 13 µM | 
58 | Cc1nc(Nc2ccc(F)cc2)[nH]c(=O)c1CCC(C)C | inconclusive [inhibitor, partial curve, poor fit] | 
59 | CCCCN1CC(COCc2ccccc2)Oc2cccc(OCCN3C(=O)[C@@H]4[C@H](C3=O)C3C=C[C@H]4C3)c2S1(=O)=O (stereo not given in full) | inconclusive [inhibitor, single point] | 
60 | CC(C)Cc1ccc(S(=O)(=O)Nc2ccccn2)cc1 |  | inactive: -9.32%
61 | COC(=O)C1=C(C(=O)OC)[C@@H]2N(Cc3ccccc3)c3ccccc3[C@@]23C[C@@H](C(=O)OC)N(C(C)=O)C3=N1 | inconclusive [inhibitor, single point] | 
62 | CCOc1ccc(-c2cccc(NS(=O)(=O)c3ccc(Cl)s3)c2)nn1 | inconclusive [inhibitor, single point] | 
63 | CCCn1c(=O)c(C(=O)Nc2cccc(C)n2)c(O)c2ccccc21 | inconclusive [inhibitor, single point] | 
64 | O=C(O)C1CCCN(S(=O)(=O)c2cccs2)C1 (stereo not given) |  | inactive: 2.62%
65 | CC(C)(C)C1CCC(C(=O)Nc2cccnc2)CC1 (stereo not given) | inconclusive [inhibitor, partial curve, poor fit] | 
66 | CC(C1CC1)N(Cc1ccccc1)C(=O)NC(=O)c1ccccc1 (stereo not given) |  | inactive: -2.14%
67 | Cc1cc(-c2cc(C(=O)NCc3ccccc3)on2)nc(S(C)(=O)=O)n1 | active: 7.31 µM | 
68 | Cc1ccsc1CNC(=O)C1(C)CCCN1CC(C)C (stereo not given) | active: 14.6 µM | 
69 | CN1CCN(S(=O)(=O)c2cccc(C(=O)N(C)Cc3c(F)cccc3Cl)c2)CC1 | inconclusive [inhibitor, partial curve] | 
70 | CC(C)S(=O)(=O)c1oc(-c2ccc(F)cc2)nc1S(=O)(=O)c1ccc(F)cc1 | active: 0.291 µM | 
71 | COc1ccc(-n2c(C)cc(C(=O)CN3C(=O)c4ccccc4C3=O)c2C)cc1 |  | inactive: -10.7%
72 | Cc1ccc(NC(=S)N2CCCC2)cc1C | inconclusive [inhibitor, partial curve] | 
73 | NC(=O)c1ccsc1NC(=O)COC(=O)/C=C/c1ccccc1 | inconclusive [inhibitor, single point] | 
74 | Cc1noc(C)c1S(=O)(=O)NC(=O)C1(C)CCN1C(=O)c1ccccc1CCc1ccccc1 (stereo not given) | inconclusive [inhibitor, single point] | 
75 | C/C(=N\NC(=O)c1c(Cl)cnn1C)c1ccc(NC(=O)c2ccc(Br)o2)cc1 | inconclusive [inhibitor, single point] | 

From PubChem BioAssay AID686979 (National Center for Advancing Translational Sciences (NCATS), 2013)
